Laboratory results from PMC12136788.
Some of the results follow.

B1: chr11:46743636:46743700:-|3pUTR|ENSG00000175216|msi1_unk|FALSE|overlapping (ssRNA)
RNA: GGGAGUUCUACAGUCCGACGAUCUUGUAAAAUUGUCCUAAUCUUUCCUAGCUUUUUAAUAGUUAAUAUUAGAAACUCUUUAAUAGUUUUCCUUUCAGUUUGUGAGCUCUUCUCUGUCGCCCUGAAGGGUCACUGUAUUCUGUACAACAGAGGAUUGAGCAUCA
B2: chr14:96341565:96341677:-|CDS|ENSG00000066739|unk|total|mutant (ssRNA)
RNA: GGGAGUUCUACAGUCCGACGAUCCUGGAACCCCAAAAUUAUUUAUGAGCCACACCCACAGCUAACCCGAAAUUUACCAGAGACCGCACCUUCUGACCCAGUGCAGAUUGGACGGUUAAUUGGCCGGUUGGAGUUGAGUCUCACCAACAGAGGAUUGAGCAUCA
B3: chr19:7477204:7477436:-|CDS|ENSG00000104883|control|control|control (ssRNA)
RNA: GGGAGUUCUACAGUCCGACGAUCCAACGCCGUGCACUGGCUGCCCCGGGGCGUGCUGUGGGCCGGCCGCUUCCCGCCGUGGCUAGUGGGCCUCAUGGGCACCAUCUCCUCAAUCCUCAGCAUGUACCAGGCGGCCCGGGCCGGCAACAGAGGAUUGAGCAUCA
B4: ENSG00000180660:stop:overlap|stop_codon|ENSG00000180660|stop_codon|NA|stop_codon (ssRNA)
RNA: GGGAGUUCUACAGUCCGACGAUCAACAAACGUGGCGACUGGCAAGAGAGAUCCUGACCAACCCGAAAAGUUUGGAAAAACUUUAGAGGAUGAUUUAAUCAAGAGCCGAAAUUAUUACCCUUCUCAAAGUCCUUAUUAAGUGUACAACAGAGGAUUGAGCAUCA
B5: chr7:17792983:17793084:-|3pUTR|ENSG00000071189|msi1|total|mutant (ssRNA)
RNA: GGGAGUUCUACAGUCCGACGAUCGACAUGCCUCCGGUAACUGCAGAAACCGCAAAUUAAAUGAUUAAUGAGCUUAUCCGUCACCGUAAACAUACAGAUUCCUAAUUCUAUGACAGUGUACAUAUAUGAAAAUAAAUGAUGAAACAACAGAGGAUUGAGCAUCA
B6: chr19:45712844:45712945:-|CDS|ENSG00000177051|unk|FALSE|bound_elsewhere (ssRNA)
RNA: GGGAGUUCUACAGUCCGACGAUCGGAACAGCGGGCAGCCCUGGCCCUGCAGAGCUACCCACGACCGACCACCCCAGCGCCUGUAGUCUUUGUGUCCGCCGAGCAAGGUGGACCGGCCAAGGGGGUGGGAUCUGAACGGCGGUCCAACAGAGGAUUGAGCAUCA
B7: ENSG00000089050:stop:overlap|stop_codon|ENSG00000089050|stop_codon|NA|stop_codon (ssRNA)
RNA: GGGAGUUCUACAGUCCGACGAUCAGAACACAGAGUUUCAUGAACUGAUUACUGUUGUAAAGUCUUUGCUGAAAGUACCAGCAUAGACUGUAUGAUUUCUGCUAUUUUGCAUCCCAAUAUAGGAGUAGAAUAAUAUCUACUAUCCAACAGAGGAUUGAGCAUCA
B8: chr4:152882748:152882856:+|CDS|ENSG00000164144|unk|total|mutant (ssRNA)
RNA: GGGAGUUCUACAGUCCGACGAUCCAGAAACUGCUGGCUAAAAAUGGAGAGACUCUUCUUGGGGCCAUUAAUUUUUUCAUUGCCCGUGUGAACACUUUGGUGAAUAAAACCAUUGAAGAUACAUUAAUGACUGUGAAACAGUAUCAACAGAGGAUUGAGCAUCA
B9: chr17:79086671:79086772:+|3pUTR|ENSG00000167280|msi1|FALSE|unique (ssRNA)
RNA: GGGAGUUCUACAGUCCGACGAUCAUAGGCUGCAAGAUGCUGAUGCCGAGAAUGAUGAUUUUCUUUCCUGCAGAUGAAACUAUUAGAAAGGGUCUUAGAUUGUGGCAGGUAGGCUUUGGAGCAGGCGCCGAGACAUUUCUGAGCCAACAGAGGAUUGAGCAUCA
B10: chr2:37227669:37227839:-|CDS|ENSG00000115816|unk|total|mutant (ssRNA)
RNA: GGGAGUUCUACAGUCCGACGAUCGUUUACUUUUGCUUUUUUCGGACUUGUGUCAAAAAAAAAGAUGUUGAAUCAAAAAUGCUCCGCGCCCUUUUAACAGGUGUGAACCGGGCAUACCCUUAUUCCCAGACUGGUGAUGACAAACAACAGAGGAUUGAGCAUCA
B11: chr8:58583617:58583718:-|3pUTR|ENSG00000035681|unk|total|mutant (ssRNA)
RNA: GGGAGUUCUACAGUCCGACGAUCGUUUUGUCUUCCUAAUCUAUCACAAUUGCCACCCAUCGGGUUUUGGGUGUGUGUUUUCACCGCGUGGUUACUUUCUAUAAUGCUGUACCCAGAUUCUAAGAACCUGGAGAAGGAUCCGCACAACAGAGGAUUGAGCAUCA
B12: ENSG00000056277:stop:overlap|stop_codon|ENSG00000056277|stop_codon|NA|stop_codon (ssRNA)
RNA: GGGAGUUCUACAGUCCGACGAUCUAGAGAAUGUUUCCAAAAGUACCUCAACUUCUGAACCCACUACUGGCUGCUCAUUGAAAUAGAUUCCUGCUCCAUGGAGUUCAUGCAACCUGGUGCAAGACAAGUUGGAAGUUCCUAAGUCAACAGAGGAUUGAGCAUCA
B13: chr11:65967286:65967395:+|CDS|ENSG00000175467|unk|FALSE|unique (ssRNA)
RNA: GGGAGUUCUACAGUCCGACGAUCGACCUUUAAAAAGACCAAGCGGAGGGUGAAGAAAAUCCGCAAGAAGGAGAAGGAGGUAGUAGUGCGGGCAGAUGACUUGCUGCCUCUCGGGGACCAGACUCAGGAUGGGGACUUUGGUUCCAACAGAGGAUUGAGCAUCA
B14: chr15:73560698:73560803:-|3pUTR|ENSG00000156642|msi1_unk|FALSE|overlapping (ssRNA)
RNA: GGGAGUUCUACAGUCCGACGAUCUUUUGGGCUUGAUGUGCUGUGAAUGUUGCUUUUUUUUUUCCUUUGUUAAAAUAUUUAAAUAGAAGUGAAAAGGUCCUCUGAGGAUCAGAUCAUGCAUGCGCCAUUUUUUACUUAAUGCAGCAACAGAGGAUUGAGCAUCA
B15: chr5:141515350:141515460:-|3pUTR|ENSG00000131504|msi1_unk|FALSE|overlapping (ssRNA)
RNA: GGGAGUUCUACAGUCCGACGAUCCUCAGCUUUCCAUCCCCAGCUAGGAAGAAAGAAUGGCACUCUUGGGCUUGGCCCAGAAUUAGAGUUAUUAGAGCAAGAGAGAGCUUAGGAAGCAUGAGGGCAACUAUAGUGAGGCCUUAUCAACAGAGGAUUGAGCAUCA
B16: ENSG00000176463:stop:overlap|stop_codon|ENSG00000176463|stop_codon|NA|stop_codon (ssRNA)
RNA: GGGAGUUCUACAGUCCGACGAUCCAAAGUUUAUCUAUAACCUGGAAGACCAUGAGUGGUGUGAAAACAUGGAGUCCGUUUUAUAGUGACUAAAGGAGGGCUGAACUCUGUAUUAGUAAUCCAAGGGUCAUUUUUUUCUUAAAACAACAGAGGAUUGAGCAUCA
B17: chr14:60713409:60714203:-|CDS|ENSG00000100625|control|control|control (ssRNA)
RNA: GGGAGUUCUACAGUCCGACGAUCUUCUGAGAGCAAAGCAACAAGUAGCUUAAUGAUGCUGGACUCUAAAUCCAAGUAUGUCUUAGAUGGCAUGGUUGAUACUGUCUGUGAAGACCUGGAAACAGACAAAAAAGAGCUUGCCAACAACAGAGGAUUGAGCAUCA
B18: chr10:95611293:95611394:-|CDS|ENSG00000059573|msi1|FALSE|bound_elsewhere (ssRNA)
RNA: GGGAGUUCUACAGUCCGACGAUCCCCCUCCGAAGUGAAGUCACUCCGAACUGAGUAUGGGGACCUGGAAUUAUGCAUUGAAGUAGUGGACAACGUUCAGGAUGCCAUUGACCACAUCCACAAGUAUGGCAGCUCCCACACGGACAACAGAGGAUUGAGCAUCA
B19: chr1:9729132:9729211:-|3pUTR|ENSG00000171603|msi1_unk|total|mutant (ssRNA)
RNA: GGGAGUUCUACAGUCCGACGAUCCCGUUCUGAGGACACUGGUGGCUGUGCUAUGUGUGGCCAUCCUCCAUGUCCCGUCCCUGCCGCUGCUCUGUUCCGACAGCGGACAGACGCUCACGCCCAGGGGAUGUCCUCACGCUGUCGCAACAGAGGAUUGAGCAUCA
B20: ENSG00000136451:be:win_751|CDS|ENSG00000136451|bound_else_gene|NA|bound_elsewhere_windowed (ssRNA)
RNA: GGGAGUUCUACAGUCCGACGAUCGUAAAACAUGUCCAUUCAACAGAAAGACCCUUCAAAUGCCAAACGUGCACUGCUGCCUUUGCCACCAAAGACAGACUGCGGACACACAUGGUGCGCCAUGAAGGCAAGGUAUCAUGUAACCAACAGAGGAUUGAGCAUCA
B21: chr10:106575406:106575507:-|3pUTR|ENSG00000108018|unk|total|mutant (ssRNA)
RNA: GGGAGUUCUACAGUCCGACGAUCUUAUGGACUGGGCAAAGCCCACUAUAAACUACCGGAGAAAGAAGUUCUGAUAAACCUCUCCGUAUGCUCAGCCUCCUUCUUUGCUAUGUCCCUAAGCCAACAGGGUAUAACACAGGCCCUCAACAGAGGAUUGAGCAUCA
B22: chr5:72207927:72208036:+|3pUTR|ENSG00000131711|msi1_unk|FALSE|overlapping (ssRNA)
RNA: GGGAGUUCUACAGUCCGACGAUCUUUUUUUUUUUUUUUUUUUGCUAUGGGAUUUAAUGGGAAAAAUAUGUAAAAACUGUCACUAGUCAGCUGGCUCUUUUUCCUAUGAAAUCUAUCAGUACCUUUCUCCAUCCGUUGUUCUCACAACAGAGGAUUGAGCAUCA

Each binder was assayed against MSI1 full-length (mouse, UniProt Q61474 1-362) (assay: nsRBNS (natural sequence RNA bind-n-seq); RBNS binding buffer (assumed for nsRBNS): 25 mM Tris pH 7.5, 150 mM KCl, 3 mM MgCl2, 0.01% Triton X-100, 500 ug/ml BSA, 20 U/ml SUPERase-In, 4 C; UNK is unkempt and MSI1 is Musashi-1; names of the RNAs are library labels; protein concentration not given here; high values mean tight binding).
UniProt Q61474, sequence (Q61474 whole entry): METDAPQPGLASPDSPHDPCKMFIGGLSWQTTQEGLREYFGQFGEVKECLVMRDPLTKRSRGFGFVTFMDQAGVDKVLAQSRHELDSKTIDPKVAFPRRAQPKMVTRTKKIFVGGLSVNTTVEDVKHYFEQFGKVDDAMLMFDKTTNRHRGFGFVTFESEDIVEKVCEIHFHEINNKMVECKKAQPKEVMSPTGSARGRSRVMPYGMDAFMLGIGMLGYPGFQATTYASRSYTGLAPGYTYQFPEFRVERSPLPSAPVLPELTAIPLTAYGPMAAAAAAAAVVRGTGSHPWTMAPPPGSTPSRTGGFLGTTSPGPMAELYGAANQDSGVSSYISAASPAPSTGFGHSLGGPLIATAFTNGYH

Row | Binder | binding signal
1 | B1 | 14.1 enrichment R
2 | B2 | 0.51 enrichment R
3 | B3 | 0.477 enrichment R
4 | B4 | 0.286 enrichment R
5 | B5 | 1.2 enrichment R
6 | B6 | 0.68 enrichment R
7 | B7 | 0.987 enrichment R
8 | B8 | 0.289 enrichment R
9 | B9 | 0.69 enrichment R
10 | B10 | 0.276 enrichment R
11 | B11 | 0.38 enrichment R
12 | B12 | 0.336 enrichment R
13 | B13 | 0.751 enrichment R
14 | B14 | 1.17 enrichment R
15 | B15 | 28.2 enrichment R
16 | B16 | 0.814 enrichment R
17 | B17 | 0.909 enrichment R
18 | B18 | 0.344 enrichment R
19 | B19 | 0.361 enrichment R
20 | B20 | 0.295 enrichment R
21 | B21 | 0.477 enrichment R
22 | B22 | 2.63 enrichment R
